One assay addresses HD-PTP-myc (human) (UniProt Q9H3S7). As to the kind of experiment: co-IP; co-expressed HD-PTP and endofin/SARA (Figure S1B); HD-PTP-myc/endofin-Strep IP from HeLa cells stably expressing HD-PTP-myc induced with doxycyclin.
The target in assay [1] is HD-PTPFL (full-length), yeast two-hybrid construct (human) (UniProt Q9H3S7). Kind of assay: two-hybrid; directed yeast two-hybrid, Clontech Matchmaker Gold, Y2H Gold strain; interactions selected on QDO plates with 0.4% glucose and 1% galactose; in triplicate.
Assay [2] concerns the target T1, HD-PTP_(Bro1-CC), yeast two-hybrid construct (human) (UniProt Q9H3S7).
T1 sequence: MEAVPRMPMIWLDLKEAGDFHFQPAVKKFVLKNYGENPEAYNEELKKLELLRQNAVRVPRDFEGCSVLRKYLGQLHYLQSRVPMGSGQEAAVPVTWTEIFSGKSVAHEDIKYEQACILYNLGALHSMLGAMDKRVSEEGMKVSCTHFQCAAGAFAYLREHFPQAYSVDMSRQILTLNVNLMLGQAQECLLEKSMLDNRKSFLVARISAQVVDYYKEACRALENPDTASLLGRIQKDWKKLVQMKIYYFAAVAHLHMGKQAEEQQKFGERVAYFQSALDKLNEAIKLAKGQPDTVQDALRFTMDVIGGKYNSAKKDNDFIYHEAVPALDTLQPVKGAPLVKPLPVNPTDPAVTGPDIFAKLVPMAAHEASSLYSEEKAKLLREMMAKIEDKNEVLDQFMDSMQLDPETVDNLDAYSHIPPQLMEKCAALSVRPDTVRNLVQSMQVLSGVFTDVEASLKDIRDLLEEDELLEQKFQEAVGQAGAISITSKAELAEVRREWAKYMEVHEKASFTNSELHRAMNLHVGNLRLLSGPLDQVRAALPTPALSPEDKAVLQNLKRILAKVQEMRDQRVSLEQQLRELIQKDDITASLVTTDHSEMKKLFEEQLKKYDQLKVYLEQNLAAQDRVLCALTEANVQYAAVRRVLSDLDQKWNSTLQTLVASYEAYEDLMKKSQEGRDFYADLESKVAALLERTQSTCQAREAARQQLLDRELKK
Described as above.

Protein sequences, listed by entry. Tags and fused reporters are not part of them. Residues count along the entry.
UniProt Q8WUM4, residues 1-359: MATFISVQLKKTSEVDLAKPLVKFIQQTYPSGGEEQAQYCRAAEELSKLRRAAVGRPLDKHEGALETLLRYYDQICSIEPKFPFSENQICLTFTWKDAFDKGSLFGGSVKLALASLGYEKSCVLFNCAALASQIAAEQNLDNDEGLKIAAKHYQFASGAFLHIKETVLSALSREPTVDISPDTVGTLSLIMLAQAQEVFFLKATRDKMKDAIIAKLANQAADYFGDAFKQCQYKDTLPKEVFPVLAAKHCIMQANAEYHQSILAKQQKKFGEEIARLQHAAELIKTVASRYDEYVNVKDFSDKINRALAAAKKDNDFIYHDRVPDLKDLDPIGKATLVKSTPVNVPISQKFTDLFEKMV

For assay [3], the target named is T2, His6-HD-PTP_(Bro1-CC) (1-714), bacterially expressed (human) (UniProt Q9H3S7).
T2 sequence: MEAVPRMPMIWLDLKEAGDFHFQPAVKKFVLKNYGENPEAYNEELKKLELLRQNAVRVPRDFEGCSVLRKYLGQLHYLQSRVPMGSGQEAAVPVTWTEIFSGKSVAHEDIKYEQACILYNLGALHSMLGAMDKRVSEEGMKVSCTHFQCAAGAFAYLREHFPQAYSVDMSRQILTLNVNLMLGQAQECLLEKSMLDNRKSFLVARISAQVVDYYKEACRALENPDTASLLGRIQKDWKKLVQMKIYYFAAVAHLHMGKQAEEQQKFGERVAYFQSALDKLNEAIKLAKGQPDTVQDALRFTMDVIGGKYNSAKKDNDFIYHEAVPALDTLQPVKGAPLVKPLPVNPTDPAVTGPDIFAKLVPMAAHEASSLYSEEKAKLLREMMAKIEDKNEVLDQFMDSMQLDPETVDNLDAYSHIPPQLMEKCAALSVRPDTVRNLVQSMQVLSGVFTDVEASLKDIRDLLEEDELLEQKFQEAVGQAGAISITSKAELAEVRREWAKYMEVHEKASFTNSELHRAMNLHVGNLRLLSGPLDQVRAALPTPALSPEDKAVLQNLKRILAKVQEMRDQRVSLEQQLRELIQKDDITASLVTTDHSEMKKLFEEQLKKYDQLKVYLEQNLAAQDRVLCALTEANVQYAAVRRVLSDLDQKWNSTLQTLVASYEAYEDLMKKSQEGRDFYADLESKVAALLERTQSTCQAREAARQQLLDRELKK
Kind of assay: co-IP; 20 μl in vitro translated 35S-endofin(1-84)-strep incubated with 5 μg bacterially expressed His6-HD-PTP Bro1-CC in IP2 buffer (20 mM Hepes pH 7.4, 100 mM NaCl, 1 mM MgCl2, 1% Triton X-100), 4°C; anti-His antibody and protein A-sepharose; phosphorimaging; only the target purified.

A further assay has as its target His6-Alix_(Bro1) (1-359) (UniProt Q8WUM4). As to the kind of experiment: SPR; ProteOn XPR36; His6-tagged proteins immobilised on a HTE chip (5000-8000 RU); synthetic peptides as analytes, five concentrations; 10 mM HEPES pH 7.4, 150 mM NaCl, 0.05% Tween 20; 25°C; equilibrium binding fit; both purified. On the technique in general: SPR reads the build-up and loss of mass on a sensor chip optically.

Assay [4] deals with T3, His6-HD-PTP_(Bro1) (1-361) (human, UniProt Q9H3S7 1-361).
T3 construct: HD-PTP/PTPN23, Bro1 domain, residues 1-361; Immobilised by its His6 tag on the HTE chip; also called HD-PTP Bro1 domain; source: E. coli BL21 (DE3), purified (Nickel-beads, MonoQ, Superdex 200); not shown: His6, N-terminal, kept
T3 sequence (looked up): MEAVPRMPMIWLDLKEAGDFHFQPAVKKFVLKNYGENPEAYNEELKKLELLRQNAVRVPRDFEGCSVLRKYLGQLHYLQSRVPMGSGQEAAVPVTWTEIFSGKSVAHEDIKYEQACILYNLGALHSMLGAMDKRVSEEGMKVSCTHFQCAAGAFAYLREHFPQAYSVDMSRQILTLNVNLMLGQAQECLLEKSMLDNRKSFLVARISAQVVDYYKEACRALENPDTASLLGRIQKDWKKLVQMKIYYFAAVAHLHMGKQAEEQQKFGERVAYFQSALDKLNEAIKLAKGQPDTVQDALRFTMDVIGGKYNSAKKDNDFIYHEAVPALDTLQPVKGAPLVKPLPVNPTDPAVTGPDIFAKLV
The description is as above.

The target in assay [5] is T2, His6-HD-PTP_(Bro1-CC) (1-714), bacterially expressed (human). The description is as above.
The target of assay [6] is HA-HD-PTP (hemagglutinin-tagged HD-PTP, wild type) (human) (UniProt Q9H3S7). As to the kind of experiment: co-IP; HA-tagged HD-PTP constructs expressed in cells; lysates in IP1 buffer (25 mM Tris-HCl pH 7.5, 40 mM NaCl, 0.5% IGEPAL); anti-HA immunoprecipitates blotted for endogenous endofin or SARA.
Assay [7] shares this target. Kind of assay: co-IP; co-expressed HD-PTP and endofin/SARA (Figure S1B); HD-PTP-myc/endofin-Strep IP from HeLa cells stably expressing HD-PTP-myc induced with doxycyclin.

These are yes or no findings as the source states them, for the method shown. For part of these data: Binding seen in cells or lysates may run through a third protein. Some entries that bind do so weakly or less than the wild type. For part of these data: Sequences can lack the tags named with a protein.

“FL endofin-Strep-tag (from UniProt Q7Z3T8 1-1539)”: the binding entry with HD-PTP-myc (human) is listed as “binds”. For the molecule “full-length endofin, yeast two-hybrid construct (from UniProt Q7Z3T8 1-1539)”, the binding result in [1] and in assay [2] was “binds” each time.

B1: endofin(1–84/L15P)-strep, in vitro translated (domain or fragment, UniProt Q7Z3T8 1-84)
chain: MDSYFKAAVSDLDKPLDDFEQNPDEQDYLQDVQNAYDSNHCSVSSELASSQRTSLLPKDQECVNSCASSETSYGTNESSLNEKT
modifications: 35S-methionine
Consider B1, for which, in assay [3], the binding result is given as “no binding”.

B2: endofin 22-mer peptide (first 22 residues of endofin) (peptide, UniProt Q7Z3T8 1-22, looked up)
peptide: MDSYFKAAVSDLDKLLDDFEQN
notes: human endofin, first 22 residues; begins 1-MDSYF-5; also called endofin peptide; endofin_(1-22) (WT); source: synthetic peptide (Generon Ltd, UK)
Turning to B2, the binding entry with His6-Alix_(Bro1) (1-359) is recorded as “no binding”. As for MDSYFKAAVSDLDKPLDDFEQN (peptide, UniProt Q7Z3T8 1-22) [endofin 22-mer peptide containing the L15P mutation], the binding result in assay [4] and in assay [5] was “no binding” throughout.

B3: endogenous SARA (protein, UniProt O95405 1-1425)
chain: MENYFQAEAYNLDKVLDEFEQNEDETVSSTLLDTKWNKILDPPSHRLSFNPTLASVNESAVSNESQPQLKVFSLAHSAPLTTEEEDHCANGQDCNLNPEIATMWIDENAVAEDQLIKRNYSWDDQCSAVEVGEKKCGNLACLPDEKNVLVVAVMHNCDKRTLQNDLQDCNNYNSQSLMDAFSCSLDNENRQTDQFSFSINESTEKDMNSEKQMDPLNRPKTEGRSVNHLCPTSSDSLASVCSPSQLKDDGSIGRDPSMSAITSLTVDSVISSQGTDGCPAVKKQENYIPDEDLTGKISSPRTDLGSPNSFSHMSEGILMKKEPAEESTTEESLRSGLPLLLKPDMPNGSGRNNDCERCSDCLVPNEVRADENEGYEHEETLGTTEFLNMTEHFSESQDMTNWKLTKLNEMNDSQVNEEKEKFLQISQPEDTNGDSGGQCVGLADAGLDLKGTCISESEECDFSTVIDTPAANYLSNGCDSYGMQDPGVSFVPKTLPSKEDSVTEEKEIEESKSECYSNIYEQRGNEATEGSGLLLNSTGDLMKKNYLHNFCSQVPSVLGQSSPKVVASLPSISVPFGGARPKQPSNLKLQIPKPLSDHLQNDFPANSGNNTKNKNDILGKAKLGENSATNVCSPSLGNISNVDTNGEHLESYEAEISTRPCLALAPDSPDNDLRAGQFGISARKPFTTLGEVAPVWVPDSQAPNCMKCEARFTFTKRRHHCRACGKVFCASCCSLKCKLLYMDRKEARVCVICHSVLMNAQAWENMMSASSQSPNPNNPAEYCSTIPPLQQAQASGALSSPPPTVMVPVGVLKHPGAEVAQPREQRRVWFADGILPNGEVADAAKLTMNGTSSAGTLAVSHDPVKPVTTSPLPAETDICLFSGSITQVGSPVGSAMNLIPEDGLPPILISTGVKGDYAVEEKPSQISVMQQLEDGGPDPLVFVLNANLLSMVKIVNYVNRKCWCFTTKGMHAVGQSEIVILLQCLPDEKCLPKDIFNHFVQLYRDALAGNVVSNLGHSFFSQSFLGSKEHGGFLYVTSTYQSLQDLVLPTPPYLFGILIQKWETPWAKVFPIRLMLRLGAEYRLYPCPLFSVRFRKPLFGETGHTIMNLLADFRNYQYTLPVVQGLVVDMEVRKTSIKIPSNRYNEMMKAMNKSNEHVLAGGACFNEKADSHLVCVQNDDGNYQTQAISIHNQPRKVTGASFFVFSGALKSSSGYLAKSSIVEDGVMVQITAENMDSLRQALREMKDFTITCGKADAEEPQEHIHIQWVDDDKNVSKGVVSPIDGKSMETITNVKIFHGSEYKANGKVIRWTEVFFLENDDQHNCLSDPADHSRLTEHVAKAFCLALCPHLKLLKEDGMTKLGLRVTLDSDQVGYQAGSNGQPLPSQYMNDLDSALVPVIHGGACQLSEGPVVMELIFYILENIV
On to B3, for which the binding entry in [6] is “binds”.

B4: SARA co-expressed with HD-PTP (Figure S1B) (protein, UniProt O95405 1-1425)
chain: MENYFQAEAYNLDKVLDEFEQNEDETVSSTLLDTKWNKILDPPSHRLSFNPTLASVNESAVSNESQPQLKVFSLAHSAPLTTEEEDHCANGQDCNLNPEIATMWIDENAVAEDQLIKRNYSWDDQCSAVEVGEKKCGNLACLPDEKNVLVVAVMHNCDKRTLQNDLQDCNNYNSQSLMDAFSCSLDNENRQTDQFSFSINESTEKDMNSEKQMDPLNRPKTEGRSVNHLCPTSSDSLASVCSPSQLKDDGSIGRDPSMSAITSLTVDSVISSQGTDGCPAVKKQENYIPDEDLTGKISSPRTDLGSPNSFSHMSEGILMKKEPAEESTTEESLRSGLPLLLKPDMPNGSGRNNDCERCSDCLVPNEVRADENEGYEHEETLGTTEFLNMTEHFSESQDMTNWKLTKLNEMNDSQVNEEKEKFLQISQPEDTNGDSGGQCVGLADAGLDLKGTCISESEECDFSTVIDTPAANYLSNGCDSYGMQDPGVSFVPKTLPSKEDSVTEEKEIEESKSECYSNIYEQRGNEATEGSGLLLNSTGDLMKKNYLHNFCSQVPSVLGQSSPKVVASLPSISVPFGGARPKQPSNLKLQIPKPLSDHLQNDFPANSGNNTKNKNDILGKAKLGENSATNVCSPSLGNISNVDTNGEHLESYEAEISTRPCLALAPDSPDNDLRAGQFGISARKPFTTLGEVAPVWVPDSQAPNCMKCEARFTFTKRRHHCRACGKVFCASCCSLKCKLLYMDRKEARVCVICHSVLMNAQAWENMMSASSQSPNPNNPAEYCSTIPPLQQAQASGALSSPPPTVMVPVGVLKHPGAEVAQPREQRRVWFADGILPNGEVADAAKLTMNGTSSAGTLAVSHDPVKPVTTSPLPAETDICLFSGSITQVGSPVGSAMNLIPEDGLPPILISTGVKGDYAVEEKPSQISVMQQLEDGGPDPLVFVLNANLLSMVKIVNYVNRKCWCFTTKGMHAVGQSEIVILLQCLPDEKCLPKDIFNHFVQLYRDALAGNVVSNLGHSFFSQSFLGSKEHGGFLYVTSTYQSLQDLVLPTPPYLFGILIQKWETPWAKVFPIRLMLRLGAEYRLYPCPLFSVRFRKPLFGETGHTIMNLLADFRNYQYTLPVVQGLVVDMEVRKTSIKIPSNRYNEMMKAMNKSNEHVLAGGACFNEKADSHLVCVQNDDGNYQTQAISIHNQPRKVTGASFFVFSGALKSSSGYLAKSSIVEDGVMVQITAENMDSLRQALREMKDFTITCGKADAEEPQEHIHIQWVDDDKNVSKGVVSPIDGKSMETITNVKIFHGSEYKANGKVIRWTEVFFLENDDQHNCLSDPADHSRLTEHVAKAFCLALCPHLKLLKEDGMTKLGLRVTLDSDQVGYQAGSNGQPLPSQYMNDLDSALVPVIHGGACQLSEGPVVMELIFYILENIV
Regarding B4, the binding entry in assay [7] was “binds”.

The values above are taken from article PMC5501724, “Structural Basis for Specific Interaction of TGFβ Signaling Regulators SARA/Endofin with HD-PTP” (Structure(London, England:1993), 2017).
